In article PMC6919601, “Identification of Plasmodium dipeptidyl aminopeptidase allosteric inhibitors by high throughput screening” (PLoS ONE, 2019):
Screen size: about 110,000 compounds; about 230 (0.21%) showed an effect of 50% or more. The list shows a part of the results.

What follows are molecules tested against DPAP1 (Plasmodium falciparum, UniProt Q8IIJ9) (assay: primary screen, percent inhibition; read by cleavage of a fluorogenic dipeptide substrate; higher = more effect of the substance).
DPAP1, sequence (Q8IIJ9 whole entry, looked up): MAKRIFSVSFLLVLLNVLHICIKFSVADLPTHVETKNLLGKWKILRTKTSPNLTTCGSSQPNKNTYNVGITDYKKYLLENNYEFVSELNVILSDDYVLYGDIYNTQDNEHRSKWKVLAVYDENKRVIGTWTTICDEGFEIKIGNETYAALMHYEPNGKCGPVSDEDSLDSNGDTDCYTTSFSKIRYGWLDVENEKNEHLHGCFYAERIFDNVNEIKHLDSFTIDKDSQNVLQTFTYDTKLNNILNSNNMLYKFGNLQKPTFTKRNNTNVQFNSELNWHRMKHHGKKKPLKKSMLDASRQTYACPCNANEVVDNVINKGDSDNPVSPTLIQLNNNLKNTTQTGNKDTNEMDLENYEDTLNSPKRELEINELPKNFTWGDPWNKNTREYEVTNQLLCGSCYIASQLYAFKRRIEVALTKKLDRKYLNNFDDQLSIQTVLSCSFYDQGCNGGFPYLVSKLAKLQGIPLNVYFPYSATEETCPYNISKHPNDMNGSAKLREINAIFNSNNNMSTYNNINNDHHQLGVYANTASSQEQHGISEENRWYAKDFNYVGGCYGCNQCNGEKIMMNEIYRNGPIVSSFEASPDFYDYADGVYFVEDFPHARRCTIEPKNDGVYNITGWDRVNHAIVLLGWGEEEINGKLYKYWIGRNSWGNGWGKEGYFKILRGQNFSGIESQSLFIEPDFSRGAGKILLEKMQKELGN
Parameters: species or system P. falciparum D10 trophozoite lysates; single well
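Note: 30 min substrate incubation versus DMSO and 10 µM JCP410 controls.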

First: COc1cc(/C=C2/C(=N)N3OC(C)=CC3=NC2=O)cc(Cl)c1OCCOc1ccccc1C
Second: Cc1cc(C)cc(-n2c(C)cc(/C=C3\C(=N)N4N=C(N5CCOCC5)SC4=NC3=O)c2C)c1
The “% Inhibition @ 10 uM” value of the first is higher: 2% for the first, -1.66% for the second.

Going from `CCc1ccc(Oc2nc3ccccn3c(=O)c2/C=C(\C#N)C(=O)NC)cc1` to `CCOCCCNC(=O)/C(C#N)=C/c1c(Oc2cccc(C)c2C)nc2c(C)cccn2c1=O`, the “% Inhibition @ 10 uM” value rises from 1.19% to 2%.

Going from `O=C1OC2CC3CC1CC(O)(C3)C2` (centres unmarked) to `CC1CCN(C(=O)CC/N=c2/c(N3CCCC3)c(O)c2=O)CC1`, the “% Inhibition @ 10 uM” value rises from -1.6% to 3.3%.

Going from `CCCC(=O)c1ccc(Oc2nc3c(c(=O)n(C)c(=O)n3C)n2Cc2ccccc2C)cc1` to `CCn1c(=N)c(C(=O)NC(C)c2ccccc2)cc2c(=O)n3cc(C)ccc3nc21` (centres unmarked), the “% Inhibition @ 10 uM” value rises from 0.9% to 1.97%.

Going from `Cc1ccc(/C=C(\C#N)c2nc(-c3ccc([N+](=O)[O-])cc3)cs2)cc1` to `COc1ccc(-c2cc(C(=O)N(C)Cc3ccccc3)no2)cc1`, the “% Inhibition @ 10 uM” value rises from -0.546% to 0.723%.

Compared with `CC1=C(C(=O)OC2CCCC2)C(c2ccc(C(F)(F)F)cc2)C2=C(O)CCCC2=N1` (centres unmarked), `CC1=C(C(=O)Nc2ccc(F)cc2)C(c2ccc(Cl)cc2)n2ncnc2N1` (centres unmarked) is higher in “% Inhibition @ 10 uM” value: -3.41% for the first, 4.75% for the second.

First: O=C(C1COc2cc(S(=O)(=O)NC3CCCC3)ccc2O1)N1CCCCC1 (centres unmarked)
Second: Cc1ccc2c(cnn2C(=O)CCCC(=O)NCCN2CCCC2)c1
The “% Inhibition @ 10 uM” value of the first is higher: 6.88% for the first, -1.11% for the second.

Going from `Cc1c(C(=O)NCCCN2CCOCC2)oc2c1-c1nn(Cc3ccc(Cl)cc3)cc1CC2` to `Clc1ccc(OCCCCN2CCCCC2)cc1`, the “% Inhibition @ 10 uM” value rises from 3.27% to 5.06%.

Going from `N#CC1=C(N)Oc2[nH]nc(-c3ccc4c(c3)OCO4)c2C1c1ccncc1` (centres unmarked) to `CCCc1[nH]nc2c1C(c1ccc(OC)c(OC)c1)C(C#N)=C(N)O2` (centres unmarked), the “% Inhibition @ 10 uM” value falls from -0.941% to -6.27%.

Going from `Cc1nc2nc(N)nn2c(C)c1Cl` to `Cc1sc(NC(=O)C2C3CCC(C3)C2C(=O)O)c(C(N)=O)c1C` (centres unmarked), the “% Inhibition @ 10 uM” value rises from -4.19% to 4.78%.

First: COc1ccc(NC(=O)c2nc[nH]n2)cc1
Second: CS(=O)(=O)N(CC(=O)NCc1ccc(Cl)cc1)c1ccc(F)cc1
The “% Inhibition @ 10 uM” value of the first is lower: -4.03% for the first, -1.59% for the second.

Compared with `Cc1cc(C)c2oc(C(=O)N(Cc3ccco3)C3CCS(=O)(=O)C3)cc(=O)c2c1` (centres unmarked), `COc1ccccc1C1N(c2ccccn2)C(=O)C2CCCN21` (centres unmarked) is lower in “% Inhibition @ 10 uM” value: 6.56% for the first, -2.29% for the second.

Going from `CCN(CC)CCN(C)Cc1ccc(Cl)cc1Cl` to `CCCNC1=N/C(=C\c2ccccc2)C(=O)N1c1ccc(Cl)cc1`, the “% Inhibition @ 10 uM” value falls from 1.26% to 0.381%.
